Patent publication US11000038B2, “Pyridone compounds and agricultural and horticultural fungicides containing the same as active ingredients” (priority 2017, dated 2021)

Legend:
[1] = test system: gray mold fungi (Botrytis cinerea); experiment: Test Example B: tomato gray mold, spray treatment of tomato plants; conditions: for Test B control value: tomato gray mold; for Test B control value class (tomato gray mold): control value=100{1-(n/3)}
[2] = test system: grape downy mildew fungus (Plasmopara viticola); experiment: Test Example G: grape downy mildew, spray treatment of grape plants; conditions: for Test G control value: grape downy mildew, 7 to 10 days after inoculation; for Test G control value class (grape downy mildew): 2.5 ml/pot, grape Neomuscat, 7 to 10 days from inoculation
[3] = test system: barley powdery mildew fungi (Blumeria graminis f. sp. hordei); experiment: Test Example D: barley powdery mildew, spray treatment of barley plants; conditions: for Test D control value: barley powdery mildew; for Test D control value class (barley powdery mildew): control value=100{1-(n/3)}
[4] = test system: wheat brown rust fungi (Puccinia recondita); experiment: Test Example E: wheat brown rust, spray treatment of wheat plants; type: in vivo; conditions: for Test E control value: wheat brown rust; for Test E control value class (wheat brown rust): control value=100{1-(n/3)}
[5] = test system: cabbage Alternaria sooty spot fungi (Alternaia brassicicola); experiment: Test Example C: cabbage Alternaria sooty spot, spray treatment of cabbage plants; type: in vivo; conditions: cabbage Alternaria sooty spot
Description: [Test Example C] Cabbage Alternaria Sooty Spot
Test plants (cabbage variety: Shikidori) were cultivated until the cotyledons extended after the sowing of seeds.
<Control Value> Control value=100{1−(n/3)}

[6] = spray treatment of tomato plants
[7] = spray treatment of barley plants
[8] = spray treatment of wheat plants
[9] = spray treatment of cabbage plants

Cc1ccccc1-n1cc(C)c(=O)c(C)c1-c1ccc(C#N)cc1 [Compound 227]
Test B control value [1, 6]: L (L shows the control value of 50% or less)
Test G control value ([2]; 250 ppm spray (2.5 ml/pot)): L (L shows the control value of 50% or less)
Test D control value [3, 7]: L (L shows the control value of 50% or less)
Test E control value [4, 8]: H (H shows the control value of more than 50%)

O=c1c(Br)cn(-c2ccccc2)c(-c2c(F)cc(F)cc2F)c1Cl [Compound 9]
Test B control value class (tomato gray mold) [1, 6]: H (H shows the control value of more than 50%)
Test G control value class (grape downy mildew) ([2]; 250 ppm spray): H (H shows the control value of more than 50%)
Test D control value class (barley powdery mildew) [3, 7]: H (H shows the control value of more than 50%)
Test E control value class (wheat brown rust) [4, 8]: H (H shows the control value of more than 50%)

COCOc1ccc(C)c(-n2cc(Br)c(=O)c(Cl)c2-c2c(F)cccc2F)c1 [Compound 427]
Test B control value ([1]; spray treatment): H (H shows the control value of more than 50%)
Test G control value ([2]; 250 ppm spray): H (H shows the control value of more than 50%)
Test D control value ([3]; spray treatment): H (H shows the control value of more than 50%)
Test E control value ([4]; spray treatment): H (H shows the control value of more than 50%)

O=c1c(Cl)cn(-c2ccccc2Cl)c(-c2c(F)cc(F)cc2F)c1Br [Compound 3]
Test B control value class (tomato gray mold) [1, 6]: H (H shows the control value of more than 50%)
Test G control value class (grape downy mildew) ([2]; 250 ppm spray): H (H shows the control value of more than 50%)
Test D control value class (barley powdery mildew) [3, 7]: H (H shows the control value of more than 50%)
Test E control value class (wheat brown rust) [4, 8]: H (H shows the control value of more than 50%)

COCCOc1ccc(C)c(-n2cc(Cl)c(=O)c(Cl)c2-c2c(F)cc(F)cc2F)c1 [Compound 295]
Test C control value [5, 9]: H (H shows the control value of more than 50%)
Test B control value [1, 6]: H (H shows the control value of more than 50%)
Test G control value ([2]; 250 ppm spray (2.5 ml/pot)): L (L shows the control value of 50% or less)
Test D control value [3, 7]: H (H shows the control value of more than 50%)

CCc1c(-c2ccccc2)n(-c2cc(OC)ccc2C)cc(C)c1=O [Compound 543]
Test B control value ([1]; spray treatment): H (H shows the control value of more than 50%)
Test G control value ([2]; 250 ppm spray): L (L shows the control value of 50% or less)
Test D control value ([3]; spray treatment): H (H shows the control value of more than 50%)
Test E control value ([4]; spray treatment): H (H shows the control value of more than 50%)

O=c1c(Br)cn(-c2ccccc2)c(-c2ccccc2C(F)(F)F)c1Cl [Compound 600]
Test B control value ([1]; spray treatment): L (L shows the control value of 50% or less)
Test G control value ([2]; 250 ppm spray): L (L shows the control value of 50% or less)
Test D control value ([3]; spray treatment): L (L shows the control value of 50% or less)
Test E control value ([4]; spray treatment): L (L shows the control value of 50% or less)

CSCn1cc(C)c(=O)c(C)c1-c1c(F)cc(F)cc1F [Compound 269]
Test B control value [1, 6]: H (H shows the control value of more than 50%)
Test G control value ([2]; 250 ppm spray (2.5 ml/pot)): L (L shows the control value of 50% or less)
Test D control value [3, 7]: L (L shows the control value of 50% or less)
Test E control value [4, 8]: H (H shows the control value of more than 50%)

Cc1cn(-c2ccccc2)c(-c2ccccc2F)c(C)c1=O [Compound 471]
Test B control value ([1]; spray treatment): H (H shows the control value of more than 50%)
Test G control value ([2]; 250 ppm spray): L (L shows the control value of 50% or less)
Test D control value ([3]; spray treatment): H (H shows the control value of more than 50%)
Test E control value ([4]; spray treatment): H (H shows the control value of more than 50%)

O=c1c(Br)cn(-c2ccccc2)c(-c2ccccc2Br)c1Cl [Compound 576]
Test B control value ([1]; spray treatment): H (H shows the control value of more than 50%)
Test G control value ([2]; 250 ppm spray): L (L shows the control value of 50% or less)
Test D control value ([3]; spray treatment): L (L shows the control value of 50% or less)
Test E control value ([4]; spray treatment): H (H shows the control value of more than 50%)

COc1cccc(-n2cc(C)c(=O)c(C)c2-c2ccccc2)c1C [Compound 546]
Test B control value ([1]; spray treatment): H (H shows the control value of more than 50%)
Test G control value ([2]; 250 ppm spray): L (L shows the control value of 50% or less)
Test D control value ([3]; spray treatment): H (H shows the control value of more than 50%)
Test E control value ([4]; spray treatment): H (H shows the control value of more than 50%)

CCCc1c(-c2c(F)cc(F)cc2F)n(-c2ccccc2C)cc(Br)c1=O [Compound 376]
Test B control value ([1]; spray treatment): H (H shows the control value of more than 50%)
Test G control value ([2]; 250 ppm spray): L (L shows the control value of 50% or less)
Test D control value ([3]; spray treatment): H (H shows the control value of more than 50%)
Test E control value ([4]; spray treatment): L (L shows the control value of 50% or less)

Cc1c(-c2c(F)cc(F)cc2F)n(CC(C)C)cc(Cl)c1=O [Compound 223]
Test B control value [1, 6]: H (H shows the control value of more than 50%)
Test G control value ([2]; 250 ppm spray (2.5 ml/pot)): H (H shows the control value of more than 50%)
Test D control value [3, 7]: H (H shows the control value of more than 50%)
Test E control value [4, 8]: H (H shows the control value of more than 50%)

Cc1cccc(F)c1-n1cc(Br)c(=O)c(Cl)c1-c1c(F)cc(F)cc1F [Compound 289]
Test B control value [1, 6]: L (L shows the control value of 50% or less)
Test G control value ([2]; 250 ppm spray (2.5 ml/pot)): L (L shows the control value of 50% or less)
Test D control value [3, 7]: L (L shows the control value of 50% or less)
Test E control value [4, 8]: H (H shows the control value of more than 50%)

COc1cc(F)c(-c2c(C)c(=O)c(Br)cn2-c2ccccc2C)c(F)c1 [Compound 266]
Test C control value [5, 9]: H (H shows the control value of more than 50%)
Test B control value [1, 6]: H (H shows the control value of more than 50%)
Test G control value ([2]; 250 ppm spray (2.5 ml/pot)): H (H shows the control value of more than 50%)
Test D control value [3, 7]: H (H shows the control value of more than 50%)

COc1cccc(F)c1-c1c(C)c(=O)c(C)cn1-c1ccccc1 [Compound 591]
Test B control value ([1]; spray treatment): L (L shows the control value of 50% or less)
Test G control value ([2]; 250 ppm spray): H (H shows the control value of more than 50%)
Test D control value ([3]; spray treatment): L (L shows the control value of 50% or less)
Test E control value ([4]; spray treatment): L (L shows the control value of 50% or less)

Cc1cn(-c2ccccc2)c(-c2cc(F)ccc2F)c(C)c1=O [Compound 614]
Test B control value ([1]; spray treatment): H (H shows the control value of more than 50%)
Test G control value ([2]; 250 ppm spray): L (L shows the control value of 50% or less)
Test D control value ([3]; spray treatment): H (H shows the control value of more than 50%)
Test E control value ([4]; spray treatment): H (H shows the control value of more than 50%)

Cc1cn(-c2ccccc2)c(-c2cc(Cl)cc(Cl)c2)c(C)c1=O [Compound 624]
Test B control value ([1]; spray treatment): H (H shows the control value of more than 50%)
Test G control value ([2]; 250 ppm spray): L (L shows the control value of 50% or less)
Test D control value ([3]; spray treatment): L (L shows the control value of 50% or less)
Test E control value ([4]; spray treatment): L (L shows the control value of 50% or less)

COc1cccc(-n2cc(C)c(=O)c(C)c2-c2c(F)cccc2F)c1C [Compound 523]
Test B control value ([1]; spray treatment): H (H shows the control value of more than 50%)
Test G control value ([2]; 250 ppm spray): H (H shows the control value of more than 50%)
Test D control value ([3]; spray treatment): H (H shows the control value of more than 50%)
Test E control value ([4]; spray treatment): H (H shows the control value of more than 50%)

Cc1ccccc1-n1cc(Cl)c(=O)c(C)c1-c1c(F)cc(F)cc1F [Compound 265]
Test B control value [1, 6]: H (H shows the control value of more than 50%)
Test G control value ([2]; 250 ppm spray (2.5 ml/pot)): L (L shows the control value of 50% or less)
Test D control value [3, 7]: H (H shows the control value of more than 50%)
Test E control value [4, 8]: H (H shows the control value of more than 50%)

Cc1ccccc1-n1cc(C)c(=O)c(C)c1-c1c(F)cccc1F [Compound 500]
Test C control value ([5]; spray treatment): H (H shows the control value of more than 50%)
Test B control value ([1]; spray treatment): H (H shows the control value of more than 50%)
Test G control value ([2]; 250 ppm spray): L (L shows the control value of 50% or less)
Test D control value ([3]; spray treatment): H (H shows the control value of more than 50%)

CCc1c(-c2ccc(F)cc2Cl)n(-c2ccccc2)cc(Br)c1=O [Compound 621]
Test C control value ([5]; spray treatment): H (H shows the control value of more than 50%)
Test B control value ([1]; spray treatment): H (H shows the control value of more than 50%)
Test G control value ([2]; 250 ppm spray): L (L shows the control value of 50% or less)
Test D control value ([3]; spray treatment): H (H shows the control value of more than 50%)

CCc1c(-c2c(F)cc(F)cc2F)n(-c2cccc(OC)c2C)cc(Br)c1=O [Compound 513]
Test C control value ([5]; spray treatment): H (H shows the control value of more than 50%)
Test B control value ([1]; spray treatment): H (H shows the control value of more than 50%)
Test G control value ([2]; 250 ppm spray): H (H shows the control value of more than 50%)
Test D control value ([3]; spray treatment): H (H shows the control value of more than 50%)

COCCOc1ccc(C)c(-n2cc(Br)c(=O)c(Cl)c2-c2c(F)cccc2F)c1 [Compound 431]
Test C control value ([5]; spray treatment): L (L shows the control value of 50% or less)
Test B control value ([1]; spray treatment): H (H shows the control value of more than 50%)
Test G control value ([2]; 250 ppm spray): L (L shows the control value of 50% or less)
Test D control value ([3]; spray treatment): L (L shows the control value of 50% or less)

C#CCOc1ccc(C)c(-n2cc(Br)c(=O)c(Cl)c2-c2c(F)cccc2F)c1 [Compound 429]
Test C control value ([5]; spray treatment): H (H shows the control value of more than 50%)
Test B control value ([1]; spray treatment): H (H shows the control value of more than 50%)
Test G control value ([2]; 250 ppm spray): H (H shows the control value of more than 50%)
Test D control value ([3]; spray treatment): L (L shows the control value of 50% or less)
